Experimental findings from PMC10726135 are described below.

The list shows a part of the results. At the low end of the ranking, values are background and their order means little. Measured with an extract: partners may take part in the binding.

The target in the assay is T1, HNF4alpha8 (COS-7 nuclear extract) (UniProt P41235-5).
T1 sequence: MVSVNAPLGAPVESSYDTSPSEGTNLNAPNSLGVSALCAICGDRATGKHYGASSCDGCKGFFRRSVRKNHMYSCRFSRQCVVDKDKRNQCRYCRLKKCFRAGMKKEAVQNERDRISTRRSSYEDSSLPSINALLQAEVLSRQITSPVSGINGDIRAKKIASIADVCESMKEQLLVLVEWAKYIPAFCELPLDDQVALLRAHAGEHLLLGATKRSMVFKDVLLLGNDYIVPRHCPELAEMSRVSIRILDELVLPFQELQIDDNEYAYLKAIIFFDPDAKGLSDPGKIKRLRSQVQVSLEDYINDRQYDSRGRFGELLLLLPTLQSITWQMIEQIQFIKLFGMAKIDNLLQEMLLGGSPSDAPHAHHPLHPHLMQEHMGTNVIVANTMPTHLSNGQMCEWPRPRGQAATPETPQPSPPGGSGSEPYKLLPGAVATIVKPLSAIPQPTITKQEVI
Kind of assay: protein-binding microarray. The settings on record: COS-7 nuclear extract on double-stranded Agilent 4x180k PBM; binding buffer, salt, pH and temperature not given; high values mean tight binding; double strand, one strand shown; sequences stand for … in …GCCTAGGGAGATTAGAGTATCGGTCGA
For the sequence TACCTGATGAAGCAATAGGAATCACACAAC, the binding signal (log2 normalized intensity) was -1.33. In the case of ACAGGTGGGGGTAAACATAGCAGAAGACCC it was -1.25; in that of CAAGGAAATCTGGGAAATGTAGCTTTTAAA, -1.27; in that of CTCTCTCTCTCTCACACACACACACACACA, 1.83. The figure for GGATGGGGTGCAAACTCACCTGGAGAAGCA is -1.27. In the case of TCAACCAGGTTCTCTTTACTGAACGCTGCG it was -1.32. Consider AGAACCTGGAACCTAGAGGCCTTTCTCTCT, for which the binding signal (log2 normalized intensity) was -1.25. For the sequence GCAGGGAGGATATCCCTCCGCCTCCCTCCC, the binding signal (log2 normalized intensity) stood at 2.76. In the case of GGCAGGACTCTGTCCTGGGCACTGTCCTAG it was 0.632; in that of TGGGTGGGGGAAGTGTGGTCAAGGGTCAGT, 4.76. With GGGACTAGAACTCAGTGTGAACTCAATGCT, the binding signal (log2 normalized intensity) was -1.05.

TTTGTGTGGTGAGGAAAAGGAGGAGTTTGA: the binding signal (log2 normalized intensity) was found to be 0.987. As to GAGTTTGGCCCCAGTTCCCATGGACTGGTT, the binding signal (log2 normalized intensity) was found to be 1.18. The figure for ACTTTCTGACTGGCCTGGGAACCCCAAGTT is 0.551; for TAGGATTAAACACGTTTTATTAGGGGTCAG it is 4.41; for CACTCCCTGGAGCAAACTTACTCTGGGGGA it is -1.35. On to GCCGTTCAGGGCCACGGGAAAACCTGACTG, for which the binding signal (log2 normalized intensity) was -1.36. In the case of AACACAGAACTATCAAACATTTTTGCAACA it was -1.29. In the case of CCAGCCACGCCCTCTAACCCAGGTTCCCGT it was -1.13; in that of ACGCCGGCCAATCCGGCTGGCAGCCGATTG, -1.34; in that of CTGACCTTTGCCCCCAGCCTCTCACAGTAG, 7.53. In the case of TCCTCTGGAGGCCAAAAGTAGGGAGGAGGG it was -1.37. On to CAAAGGACAAATCTCACTGATAGTCTCCTA, for which the binding signal (log2 normalized intensity) was -1.28. In the case of TAGATCAGCTTTCAACACTCTGGATTCCTC, the binding signal (log2 normalized intensity) is -1.36. The figure for CCTGACCCCCTCCTCACCCCACTTTGGTTC is 4.37; for GACAAACAGACTTCACACTAGAAGACTCAT it is -1.32. On to GCTACAGAGCTCAGATTTCAAGGTGAGCAG, for which the binding signal (log2 normalized intensity) was -0.986.

Take AATGGAATACTTGCCTAAGGTCAATGTCCT: the binding signal (log2 normalized intensity) stood at 3.89. For the sequence TTTTTGTTCCACTGGTAACTAGGTTAATGT, the binding signal (log2 normalized intensity) was 1.73.

As to ACAGCCTTTTCTTATCAGGCTCATTCTAAC, the binding signal (log2 normalized intensity) is -0.846. The figure for TAGAACGCTGACTCCGGGGAGCAGGCAGAG is -1.28; for GGAATGCAGTAGTGCGATGATCATGGCTCA it is -1.08. The figure for TCAAGCCTTTGACTCGAATGCGAACCTGTC is 0.675; for CTAGAGCCAAGGAAGAGAAGACCAAACAAC it is -1.24. Turning to TTTGATCTCTTATCACCCTGAACAGTGGCT, the binding signal (log2 normalized intensity) was -0.15. In the case of CATGTAGTCACATACCTATGCAAACAGCGC it was -1.23; in that of AGGACAGCCAGGCAGTCGGGAAATTCCAGC, -1.15; in that of GAGACCTGTTCTGTTCCCTGGACTCAGCTC, 2. In the case of TTCTTGAGCTACCGCCTGAACCTTGGATCT it was 4.48; in that of GCGGGCCGGGAGGGGGACGCTTTCTGGCGC, -1.52.
